B1: recombinant full-length human serum transferrin (recombinant glycosylated), diferric (ligand)
chain: not shown
modifications: glycosylated (N-linked oligosaccharide sites Asn-413 and Asn-611); diferric (iron-saturated); radioiodinated in Table 2 (A), unlabeled in (B)
notes: also called full length recombinant hTF; recombinant Tf
B2: Sigma diferric human transferrin (ligand)
chain: not shown
modifications: diferric; radioiodinated in Table 2 (A), unlabeled in (B)
notes: Commercial human transferrin
B3: Scipac diferric human transferrin (ligand)
chain: not shown
modifications: diferric; radioiodinated in Table 2 (A), unlabeled in (B)
notes: Commercial human transferrin
B4: Boehringer Mannheim diferric transferrin (human) (ligand)
chain: not shown
modifications: diferric; radioiodinated as the direct-binding sample in (A) and as the tracer in (B); unlabeled as the competitor
notes: Commercial human transferrin; also called Boehringer Mannheim Fe2hTf; Boehringer Mannheim hTf

In one assay the target is T1, transferrin receptor on HeLa S3 cells (human).
T1 construct: whole, on cells; also called human receptors; cell-surface transferrin receptors
Nature of the assay: competition of unlabeled transferrin against radioiodinated Boehringer Mannheim hTf on HeLa S3 cells, LIGAND fit (apparent Kd').
Take B1: the Kd was found to be 22.6 nM.
Take B2: the Kd is 19.6 nM.
Still for that read-out and setting: for B3 the value was 30 nM.
Consider B4, for which the Kd was found to be 29.7 nM.

A further assay concerns the target T1, transferrin receptor on HeLa S3 cells. Nature of the assay: direct equilibrium binding of radioiodinated diferric transferrin to HeLa S3 cells, LIGAND fit (apparent Kd').
Take B1: the Kd is 31.3 nM.
For the molecule B2, the Kd came to 19.9 nM.
On the same count and under the same terms, for B3 the value was 22.5 nM; for B4, 17.8 nM.

Source of the values: patent US20050054043A1 (UNIVERSITY OF VERMONT, published 2005).
